The results in this text go back to PubChem BioAssay AID1240 (Sanford-Burnham Center for Chemical Genomics, 2008).

The whole screen tested about 50,000 compounds, of which about 800 (1.6%) showed an effect of 50% or more. This is one part of the list.

In the assay the target is Bcl-2-like protein 10 (Homo sapiens) (UniProt Q9HD36). The assay is described as follows: TR3 peptide-Bcl-B binding displacers, biochemical primary FP assay, phenotype converters (AID 1240).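 Note: 0% = Bcl-B with tracer peptide and DMSO and 100% = tracer peptide lacking Bcl-B.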 Particulars: GST-Bcl-B / FITC-TR3 peptide fluorescence polarization; stronger effect = higher value; compound at 3.75 mg/L. On the technique in general: Polarisation of emitted light reports the rotation of a fluorescent probe.
Sequence of UniProt Q9HD36 (Q9HD36 whole entry, looked up): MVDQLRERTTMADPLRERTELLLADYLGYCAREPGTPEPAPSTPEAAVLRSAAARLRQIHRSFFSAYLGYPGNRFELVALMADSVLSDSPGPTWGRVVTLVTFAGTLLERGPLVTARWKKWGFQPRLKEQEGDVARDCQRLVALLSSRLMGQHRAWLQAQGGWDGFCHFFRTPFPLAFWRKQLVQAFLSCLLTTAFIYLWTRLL
With `Cc1cc(C=C2C(=O)N(C)C(=O)N(C)C2=O)c(C)n1C`, the displacement was 14.1%. With `O=c1[nH]c(=S)[nH]c(O)c1C=Nc1cc(Cl)ccc1O`, the displacement is 3.2%. As for `c1ccc(-c2cc(-c3ccccc3)n(-c3ncn[nH]3)n2)cc1`, the displacement turned out to be 7.9%. In the case of `CCOc1ccc(C(=O)Nc2ccc3oc(-c4ccccc4F)nc3c2)cc1Cl` it was 12.4%; in that of `CCOc1ccc(NC(=O)CSc2nc3ccccc3[nH]2)cc1`, 11.9%; in that of `COC(=O)CCC(=O)NNC(=O)c1ccc(Cl)cc1Cl`, -14.9%.

On to `Cc1ccc(C(=O)Nc2ccc(NC(=O)c3ccc(Br)cc3)cc2)cc1`, for which the displacement was found to be 10.9%. Under `S=c1[nH]nc(-c2ccc(Cl)cc2Cl)n1-c1ccccc1` stands -28.5%.

Consider `COC(=O)C(c1ccccc1)c1ccccc1`, for which the displacement turned out to be 5.8%. For the compound `CC(C)COc1ccc(C(=O)N/C(=C/c2ccc3c(c2)OCO3)C(=O)O)cc1`, the displacement was -0.6%. For `NNC(=O)COc1ccc(Oc2ccccc2)cc1`, the displacement is -11.4%. In the case of `Cc1ccsc1/C=C(\C#N)c1nc(-c2cc3cc(Br)ccc3oc2=O)cs1` it was -10.8%. On to `Cc1ccc2[nH]c(O)c(N=NC(=O)c3cc4ccccc4nc3C)c2c1`, for which the displacement turned out to be 5.5%.

As to `N#CCCN(C1CCCCC1)S(=O)(=O)c1ccc(Cl)cc1`, the displacement was -0.7%. `O=C(Cc1ccc(F)cc1F)Nc1ccc(I)cc1`: the displacement worked out at 13.7%. For the compound `O=C1c2ccccc2C(=O)N1CCN1CCc2ccccc21`, the displacement is -10.4%. Take `Cc1ccc(OCC(=O)NCc2ccncc2)c(C)c1`: the displacement is -4.5%. Consider `Cc1cc(C)cc(NC(=O)CCC(=O)O)c1`, for which the displacement is -13.5%. Regarding `COC(=O)c1ccc(C(=O)OC)c(NC(=O)CN2C(=O)c3ccccc3C2=O)c1`, the displacement turned out to be 6.2%. In the case of `CC1(C)CC(N2CN(C3CC(C)(C)NC(C)(C)C3)CN(C3CC(C)(C)NC(C)(C)C3)C2)CC(C)(C)N1` it was 2.8%.

For `O=C(N/N=C\c1ccccc1O)c1cncc(Br)c1`, the displacement was -4.6%. As for `COc1c(Cl)ccc(Cl)c1C(=O)Nc1cccc(Br)c1`, the displacement is -10.4%. Under `O=C(Nc1cccnc1)c1cccc(Br)c1` stands -6%. Under `Cc1ccccc1OCCOc1ccc(/C=C2/SC(=S)N(C)C2=O)cc1` stands 0.3%; under `CCOc1ccc(NC(=O)c2cc(-c3ccc(OC)c(OC)c3)nc3ccccc23)cc1`, 48.7%. As to `CCCC(=O)c1ccc(N2CCN(C(=O)c3ccccc3F)CC2)c(F)c1`, the displacement is -11.5%. For the compound `COc1ccc(/C=C2\SC(=S)N(NC(=O)c3ccncc3)C2=O)cc1OC`, the displacement is -13.6%. In the case of `COC(=O)c1ccc(OC)cc1OCCN1CCOCC1` it was -14.1%; in that of `COc1ccc(C2/C(=C(/O)c3ccccc3)C(=O)C(=O)N2c2nc3ccccc3s2)c(OC)c1` (configuration not stated), 12.2%; in that of `O=C(O)CCN1C(=O)/C(=C/C=C/c2ccc([N+](=O)[O-])cc2)SC1=S`, 3.2%. `CC1(C)OC2OC(COC(=O)c3ccccc3)C3OC(C)(C)OC3C2O1` (configuration not stated): the displacement was 14.6%. In the case of `COc1ccc(C2Nc3ccccc3C(=O)N2Cc2ccco2)cc1COc1cccc(C)c1C` (configuration not stated), the displacement was 8%. As to `O=C(CCC(=O)Nc1ccccc1)N/N=C/c1cccnc1`, the displacement worked out at 1.7%. For `Cc1cc(O)ccc1N=Cc1ccc(N2CCOCC2)cc1`, the displacement was -2.8%. `Cc1ccc(C)c(NC(=O)c2ccc([N+](=O)[O-])cc2)c1`: the displacement was determined as 11%. With `CN(C)c1cccc(NC(=O)c2cc(F)c(F)cc2Cl)c1`, the displacement amounted to 8.2%. As for `CCOC(=O)C(C(=O)OCC)C(CC(=O)c1ccccc1)c1ccccc1` (configuration not stated), the displacement turned out to be 1.1%. In the case of `Cc1csc(NC(=O)c2c(O)c3ccccc3[nH]c2=O)n1`, the displacement stood at 2.6%. As for `COc1ccc(NC(=O)c2cc(-c3ccc(C)o3)nc3ccccc23)c(OC)c1`, the displacement is -0.2%. Regarding `COc1ccc(NC(=O)c2sc(N)c(C(=O)OC(C)C)c2C)cc1`, the displacement was -1.3%.

Consider `COc1ccc(S(=O)(=O)N(CCc2ccccc2)CC(=O)Nc2ccccc2Cl)cc1`, for which the displacement came out at 11.9%. `NC(=O)C1CCN(C2CC(=O)N(c3cccc(Br)c3)C2=O)CC1` (configuration not stated): the displacement was -0.5%. In the case of `CCOc1cc(OCC)cc(C(=O)Nc2ccc(C(C)CC)cc2)c1` (configuration not stated), the displacement was determined as 11.8%. In the case of `CCCCc1ccc(NC(=O)C2COc3ccccc3O2)cc1` (configuration not stated) it was -0.9%. `Cc1cc([N+](=O)[O-])ccc1NC(=O)/C=C/c1ccccc1Cl`: the displacement was 8.3%. For `COc1ccccc1-c1n[nH]c(=S)o1`, the displacement is -0.8%. Turning to `CCOc1cc(/C=C2/SC(=S)N(CC)C2=O)ccc1OCc1ccccc1`, the displacement is 17.2%. In the case of `COc1ccc(-c2cc(-c3cc(Cl)ccc3O)[nH]n2)cc1` it was -7.3%; in that of `CCCC(=O)Nc1c(C)ccc2nsnc12`, -3.3%; in that of `Cc1ccc(C(=O)c2coc3ccc(O)c(CN4CCOCC4)c23)cc1`, 0.2%.

Turning to `COc1ccc(-c2cc(=O)n(-c3ccc(Oc4ccccc4)c(S(=O)(=O)O)c3)[nH]2)cc1`, the displacement was 12.8%. For the compound `Cc1ccccc1NC(=O)c1c(N)sc2c1CCCC2`, the displacement turned out to be 12.7%.

Regarding `COCP(=O)(c1ccccc1)c1ccccc1`, the displacement worked out at 12.4%. In the case of `O=[N+]([O-])c1ccc(N2CCN(S(=O)(=O)c3ccccc3)CC2)c(Cl)c1`, the displacement came out at 17.6%.

Turning to `COc1ccc(/C=C/C(=O)Nc2cccc(C(F)(F)F)c2)cc1Br`, the displacement came out at 10.4%. In the case of `CCNC(=S)Nc1ccc(C(=O)O)cc1`, the displacement is -5.4%.

As to `CC(C)c1ccccc1OCC(=O)Nc1cccc(C(=O)O)c1`, the displacement is 1.4%. In the case of `CCC(C)NCC(=O)NCCNc1ccc([N+](=O)[O-])cc1Cl` (configuration not stated), the displacement was 0.9%. In the case of `Cc1cc(Oc2ccccc2F)c(F)cc1[N+](=O)[O-]` it was 5.3%. Turning to `CS(=O)(=O)N(CC(=O)Nc1ccc(Br)cc1)c1ccc(Cl)cc1`, the displacement was determined as 12.1%. `Cc1cc(C)nc(/N=C(/N)C2=C(O)CC(C)(C)CC2=O)n1`: the displacement came to 9.7%. For the compound `COc1ccc(NS(=O)(=O)c2c(C)cc(C)cc2C)cc1`, the displacement was -5.7%.

Consider `COc1ccc(NC(=O)CC(c2ccccc2)c2ccccc2)cc1`, for which the displacement turned out to be 12.2%. With `CCOC(=O)C1=C(C)N=c2s/c(=C\c3ccc(-c4cccc(C(=O)O)c4)o3)c(=O)n2C1c1ccc(OC)c(OC)c1` (configuration not stated), the displacement was -5.6%. For `COc1ccccc1C1SCC(=O)N1c1ccc(Cl)c(Cl)c1` (configuration not stated), the displacement was determined as 9.2%. Turning to `C/C(O)=C(\C#N)P(C)(=O)OCC(C)C` (configuration not stated), the displacement is 10.9%.

On to `CN(C)c1ccc(NC(=S)Nc2ccccc2)cc1`, for which the displacement amounted to 6.1%. Turning to `Cc1ccc(N2C(=O)CC(NCc3ccccc3)C2=O)cc1` (configuration not stated), the displacement was -2.6%.

With `Cc1c(N(C(=O)c2ccccc2)C(=O)c2ccccc2)c(=O)n(-c2ccccc2)n1C`, the displacement was found to be 14.1%. As to `Cc1cccc(OCc2nnc(NC(=O)Nc3ccc(Cl)cc3)s2)c1C`, the displacement is 4.5%. For `O=C(O)c1cc(-c2ccc([N+](=O)[O-])o2)c(Cl)cc1Cl`, the displacement is 16.2%. Take `Cc1ccccc1CNC(=O)c1ccc(N(Cc2ccccc2)S(C)(=O)=O)cc1`: the displacement is -2.8%.

Regarding `Cc1cccc(N2C(=O)c3ccc4c5c(ccc(c35)C2=O)CC4)c1C`, the displacement was -12.7%.

As for `O=C(Nc1ccc(N2CCOCC2)cc1)c1ccc2c(c1)OCO2`, the displacement is -8.7%.

In the case of `O=C(Oc1ccc(NS(=O)(=O)c2ccccc2)cc1)c1ccc(Cl)cc1`, the displacement is 7.1%. Regarding `CCNC(=O)c1cc(-c2ccc(Cl)s2)nc2ccccc12`, the displacement is -5.8%. Regarding `O=C(NNC(=O)c1sc2ccccc2c1Cl)Nc1cccc(Cl)c1`, the displacement was determined as 8.4%.

With `CCCCCC1C(CC(=O)OC)CCC1NCCN(C)C` (configuration not stated), the displacement is -0.4%.

For the compound `O=C1C2CCCC1C(c1ccccc1)NC2c1ccccc1` (configuration not stated), the displacement turned out to be 3%. As for `COc1ccc(/C=C2\SC(=O)N(CC(=O)Nc3ccccc3Cl)C2=O)cc1OC`, the displacement was found to be 7.8%. For `CC(=O)Oc1c(C=C(C#N)C#N)[nH]c2ccccc12`, the displacement was found to be 34%. In the case of `Cc1ccc(C(=O)NN2C(=O)/C(=C/c3ccc4c(c3)OCO4)SC2=S)cc1` it was -27.1%; in that of `CCSc1nncn1/N=C/c1ccc(OC)c(OC)c1`, -22.4%. Consider `CCC1CCc2c(sc(NC(=O)c3cccnc3)c2C(N)=O)C1` (configuration not stated), for which the displacement was found to be 9.6%. As for `COc1ccccc1NC(=O)c1c(NC(=O)Cc2ccccc2)sc2c1CCCCC2`, the displacement came out at 9.3%.

Regarding `O=C(NCCN1CCN(C(=O)Nc2cccc(Cl)c2)CC1)Nc1cccc(Cl)c1`, the displacement is -5.3%. Take `O=C(O)c1ccccc1-c1ccccc1/C=N/O`: the displacement was 4.9%. Turning to `CCCC(=O)c1ccc(N2CCN(C(=O)c3ccccc3)CC2)c(F)c1`, the displacement was -12.9%. As for `NC(=O)c1cccc(NC(=O)CCC(=O)O)c1`, the displacement is -8.5%. On to `Cc1cc(OCC(=O)Nc2ccc(Cl)cn2)ccc1Br`, for which the displacement is 7.7%. Consider `CCOc1cc(/C=C2/C(=O)NC(=O)N(c3cccc(C)c3)C2=O)cc(Br)c1O`, for which the displacement is -4.1%. For `COc1ccc(-c2cc(C(F)(F)F)n3ncc(C(N)=O)c3n2)cc1OC`, the displacement was 36.4%. Turning to `CCC(C)c1ccc(OCCOc2ccc(/C=C3/SC(=S)N(C)C3=O)cc2OC)cc1` (configuration not stated), the displacement is -22.2%. As to `COc1ccccc1OCC(=O)Nc1ccc(-c2nc3ccccc3[nH]2)cc1`, the displacement worked out at 2.1%. Regarding `Cc1c(C(=O)Nc2ccc3oc(-c4ccncc4)nc3c2)oc2ccccc12`, the displacement came out at 35.1%.

On to `CCN(c1ccccc1)S(=O)(=O)c1c(C)cc(C)cc1C`, for which the displacement was -8.7%. Under `O=C1/C(=C\c2cccc([N+](=O)[O-])c2)SC(=S)N1c1cccc(C(F)(F)F)c1` stands 13.3%.

As to `CNC(=O)C(=O)Nc1cccc2ccccc12`, the displacement was determined as 12.4%. Consider `COc1ccc(C(=O)NC(C)C2COc3ccccc3O2)c(OC)c1` (configuration not stated), for which the displacement came out at 0.5%. As for `COc1ccccc1NC1=C(Cl)C(=O)N(c2ccc(C)cc2C)C1=O`, the displacement worked out at 8.3%. On to `O=[N+]([O-])c1ccc(F)c(NS(=O)(=O)c2cc(Cl)ccc2Cl)c1`, for which the displacement was -1.9%.

For `CCCS(=O)(=O)c1c(S(=O)(=O)CCC)c2ccc(C(C)=O)cn2c1C(=O)OC`, the displacement is -4.7%. For `O=[N+]([O-])c1ccc(NC(=S)Nc2ccccc2)c(O)c1`, the displacement was 16.4%.

For `COc1ccc(OCC(=O)n2nc(C)cc2C)cc1`, the displacement was -0.6%. On to `COc1ccccc1OCCCCCn1ccnc1`, for which the displacement was determined as 3.2%. As for `CN(C)c1ccc(/C=C2\N=C(c3cc4ccccc4oc3=O)OC2=O)cc1`, the displacement is 0%. With `S=C(NCc1cccnc1)Nc1ccc(Cl)cc1Cl`, the displacement is -5.6%. Under `Cc1c(C)c2ccc(OCC(=O)C(C)(C)C)c(C)c2oc1=O` stands 5.4%; under `CSc1ccccc1NC(=O)Cn1nc(C(F)(F)F)cc1C`, -0.7%.

On to `O=C(CCCN1C(=O)/C(=C\c2cccs2)SC1=S)Nc1nc2ccccc2s1`, for which the displacement was determined as 12.7%.

Regarding `O=C1C(=O)N(Cc2cccnc2)C(c2cccc(F)c2)/C1=C(\O)c1ccccc1` (configuration not stated), the displacement was -10.3%. As to `CCCC1=NN2C(=N)/C(=C/c3ccc(-c4ccc(Cl)cc4Cl)o3)C(=O)N=C2S1`, the displacement amounted to 74.7%.
